# Laboratory results published in paper PMC12136788.
# The other results are listed elsewhere or left out.
# B1: 235949563_235949683_614_CDS_ENSG00000130147_ENST00000392011|human|control|control (ssRNA)
# RNA: GGGAGUUCUACAGUCCGACGAUCACCGCCAGAUGUGUCCAAGACGUAGAGAUGGUCGCCCUUGGAGAACUUCAGUGUGGUGAAGUUGGUGGGGCAAUAGUCCUUGAUCGCAAUCACUUCCUUUGCAUUUCCGAAAGGUGUGGGCAACAGAGGAUUGAGCAUCA
# B2: chr11:130013608:130013609:+_ENSG00000084234_ENST00000528499|hu_hu|FALSE|FALSE (ssRNA)
# RNA: GGGAGUUCUACAGUCCGACGAUCAGCAUGUGUCAGACAAUACAAUGGAAGUGGGGUUUCUGAUUAAUUUAAAAAAGAAAACUACAUCAAAUAUCUGCAAUAGAUCAUUUUUUUCAUUUAAGGUUUAUAUAUCAUAUAUUGUUACAACAGAGGAUUGAGCAUCA
# B3: chr4:118896860:118896861:-_ENSMUSG00000078584_ENSMUST00000141112|mus_mus|FALSE|FALSE (ssRNA)
# RNA: GGGAGUUCUACAGUCCGACGAUCCCGAGUGCUGGGAUUAAAGGCGUGCACUACCACUGCCCGGCUUGACACUUCUUAUACCCAAAAUUGGUUACUUUCUCUGUCUCAUUAUGACAAGGAUCUCUGUCUUGUGCUCUCUGUGCUCAACAGAGGAUUGAGCAUCA
# B4: chr11:103733960:103733961:-_ENSMUSG00000034187_ENSMUST00000103075|mus_mus|FALSE|FALSE (ssRNA)
# RNA: GGGAGUUCUACAGUCCGACGAUCCAUUUUAACUUCCAGUCUUCCGGGUCGAAGGAGAGCUUCGUCUAUCAAAUCUGGUCUAUUGGUCAUUCCGAUAACGAGGAUGUUGUUCAGCUGCUCAACGCCAUCGAUCUUGGACAGCAGCAACAGAGGAUUGAGCAUCA
# B5: 111932888_111933355_639_CDS_ENSMUSG00000021270_ENSMUST00000094361|mouse|control|control (ssRNA)
# RNA: GGGAGUUCUACAGUCCGACGAUCCUUUGUUCCACGACCCAUUGGUUCACCUGUGUCAGUCCUCACUGUGAAGGAUCCCCCAGCUGAGGACUCCCAGGCAUACUGCUCAUCGUCGUUAUGCUUCGUGAUGACAGUCACUUUCUCCAACAGAGGAUUGAGCAUCA
# B6: 97424854_97425602_1988_CDS_ENSMUSG00000021670_ENSMUST00000022176|mouse|control|control (ssRNA)
# RNA: GGGAGUUCUACAGUCCGACGAUCGAGUUUCUGUAGACGAGCAAAUCUGCUGGUGCUAUCAAAGGCCUCCUUUAUCACUGCAAACCCUUCAGGUGUUUCAAGCCAGGUCUUUACUUCUGCAGAGUCACAAGCACGUGGAAGACGCAACAGAGGAUUGAGCAUCA
# Target: T1, UNK ZnF1-3 (human, UniProt Q9C0B0 31-174)
# T1 sequence: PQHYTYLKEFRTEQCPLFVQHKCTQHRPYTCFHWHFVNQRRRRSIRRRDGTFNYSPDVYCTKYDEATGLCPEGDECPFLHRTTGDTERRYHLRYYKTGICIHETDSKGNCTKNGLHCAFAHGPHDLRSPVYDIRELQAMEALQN
# Assay: nsRBNS (natural sequence RNA bind-n-seq); RBNS binding buffer (assumed for nsRBNS): 25 mM Tris pH 7.5, 150 mM KCl, 3 mM MgCl2, 0.01% Triton X-100, 500 ug/ml BSA, 20 U/ml SUPERase-In, 4 C; UNK is unkempt and MSI1 is Musashi-1; names of the RNAs are library labels; protein concentration not given here; high values mean tight binding
row,Binder,binding signal [enrichment R]
1,B1,0.68
2,B2,2.84
3,B3,0.673
4,B4,1.24
5,B5,0.348
6,B6,0.995
